According to ChEMBL document CHEMBL4888484, “Replenishing the malaria drug discovery pipeline: Screening and hit evaluation of the MMV Hit Generation Library 1 (HGL1) against asexual blood stage Plasmodium falciparum ,using a nano luciferase reporter read-out” (2022):
Hit rate of the full screen: of about 150,000 compounds, about 540 (0.36%) showed an effect of 50% or more. The list shows a part of the results.

These compounds were tested on Plasmodium falciparum (assay: Primary screen in NF54 nanoGlo assay, in single point, at 2uM, 72h; a lower Z score goes with more inhibition). Conditions: timepoint 72 hour.
Type: functional, Erythrocyte

Point of comparison: `COC(=O)c1cc2n(n1)C[C@@](C)(C(=O)NC1CCC(C)CC1)N(Cc1ccccc1OC)C2=O` (some centres not stated), “% Inhibition” value 16%. Against it:
- CC(C)C(=O)N1CCC(c2nc(-c3cnsc3)no2)CC1 — lower, -1%
- C[C@@H](C(=O)Nc1cc(F)ccc1O)N(C)C — lower, 0%
- Cc1nc(C(=N)NOC(=O)Cc2ccccc2)no1 — lower, -13%
- O=C(COc1ccc(Cl)cc1)Nc1cccc(Cl)c1N1CCCC1 — lower, 4%
- CCOc1cccc(-c2ccc3nc(-c4cccc(OC)c4)c(CCC(=O)NCCN4CCCC4)n3c2)c1 — higher, 59%
- CCOc1ncccc1CNc1cncc(-n2cccn2)n1 — lower, -17%
- CCNC(=O)[C@@]1(OCc2ccc(F)cc2F)CC(OCc2cccc(Cl)c2)[C@@H]2OC(C)(C)O[C@@H]2C1 (some centres not stated) — lower, -15%
- CC(=O)c1c(-c2cccc(C(=O)N3CCN(CCO)CC3)c2)cnn1C — lower, 3%
- CC(NC(=O)N[C@H]1CCO[C@@H]1c1cnn(C(C)C)c1)C1CCC(F)CC1 (some centres not stated) — lower, -26%
- CCn1cnnc1[C@H]1CCCN(c2c(C(=O)O)cnc3ccccc23)C1 — lower, -11%
- CC(C)CN1CCC[C@H]1CNC(C)c1cnn(C)c1 (some centres not stated) — lower, -15%
- Cc1cccnc1C(=O)N[C@@H]1CCC[C@@H]1C(=O)N1CCc2ccccc2C1 — lower, -6%
- Cn1nccc1C1CC(Nc2nc(C3CCCCC3)ns2)CCO1 (configuration not stated) — lower, -11%
- O=C(C[C@H]1CCCCN(Cc2ccccc2)C1=O)NC1CC1 — lower, -9%
- CC(C)N1CCC2(CCC(O)CC2)CC1 — lower, 1%
- COc1cccc(-c2nc3ccc(-c4cccc(C(F)(F)F)c4)cn3c2CCC(=O)Nc2ccc(C)cc2)c1 — lower, -6%
- Cc1ccc(S(=O)(=O)NCc2ccc(N3CCCC3=O)cc2)c(C)c1 — lower, 1%
- Cn1cc(-c2cc3n(n2)CCC(=O)N3CC(=O)Nc2ccc(Cl)cc2)c2ccccc21 — lower, -10%
- O=C(c1ccc(F)c(F)c1)N1CCN(S(=O)(=O)c2cc3c4c(c2)CCC(=O)N4CCC3)CC1 — lower, 1%
- FC(F)(F)c1nc2ccccc2nc1N1CCC2(CC1)OCCO2 — lower, -4%
- CCN1CCC2CCC(C1)N2Cc1ncc(C2OCCO2)s1 (configuration not stated) — lower, 0%
- O=C(NCC1(CO)CC2(CCC2)C1)N[C@H]1CCOC2(CCC2)C1 — lower, -9%
- Nc1ccccc1Nc1nc(C(C(F)(F)F)(C(F)(F)F)C(F)(F)F)nc(C(C(F)(F)F)(C(F)(F)F)C(F)(F)F)n1 — lower, -11%
- COc1ccc(S(=O)(=O)N2CCC(n3cnnc3C)CC2)cc1Cl — lower, -11%
- CC(=O)c1sc(NC(=O)Cc2c[nH]c3ccccc23)nc1-c1ccccc1 — lower, -2%
- COCCN1CC2(CCC1=O)CCN(C(=O)c1c(C)nn(C)c1C)CC2 — lower, -8%
- CC(C)(C)OC(=O)N1CC(CC(=O)Nc2ccc(F)c(Cl)c2)C1 — lower, 5%
- C#Cc1cc(F)c(Br)c(F)c1N — lower, 0%
- O=C(NCC1CC12CCCc1ccccc12)NC1CCCNC1=O (configuration not stated) — lower, 4%
- CN(C)c1cccc(NC(=O)CC(F)(F)F)n1 — higher, 24%
- O=C(NCCc1ccncc1)c1ccc(Br)o1 — lower, -11%
- COC(=O)CNC(=O)[C@H]1CC[C@H](Cn2c(=O)[nH]c3ccccc3c2=O)CC1 — lower, -12%
- CC(C)(C)CC(=O)N[C@@H]1CC[C@H]2CCOc3ccccc3C(=O)N3CCN(CC4CC4)C[C@H]3C(=O)NC[C@H]1O2 — lower, -6%
- O=C(Nc1ccc(NC(=O)C(c2ccccc2)c2ccccc2)cc1)c1ccccc1Cl — lower, -3%
- CC1OC(C)(C)OC1C1CNc2nc(NC(=O)C(C)(C)C)nc(O)c2N1C(=O)c1cccnc1 (configuration not stated) — lower, -26%
- CC(C)c1nc2cc(C(=O)N3CCC[C@H](COc4ccccc4F)C3)ccc2o1 — lower, -11%
- CCOc1ccc(-c2cc3nc(C4CCN(C(=O)OC(C)(C)C)CC4)c(C(=O)Nc4ccc5c(c4)OCCO5)cn3n2)cc1 — lower, -4%
- Cc1cc(COCC(=O)N2CC(C)(C)O[C@@]3(C[C@@H]4CC[C@H]3C4)C2)no1 — lower, -20%
- c1ccc2c(c1)CCN(c1nc(-c3c[nH]c4ccccc34)nc3c1CNC3)C2 — lower, -10%
- COc1ccc(-c2cc(C(=O)N3CCC[C@H]3c3nc(C4CCOCC4)no3)c(C)n2C)cc1 — lower, -9%
- Cc1sc2cc(C(=O)NCc3cccnc3)[nH]c2c1CN1CCCCC1 — lower, -7%
- COc1cc(C(=O)NC[C@]2(O)CCCC2(C)C)nn1C — lower, -16%
- CC[C@H](C)NC(=O)Cc1cn(CC)c2ncccc12 — lower, -17%
- O=C(c1cc2n(n1)CCN(c1cnccn1)C2)N1CCCC1 — lower, -19%
- CN1CCN(CC[C@H](O)c2ccc(N)cc2)CC1 — lower, -3%
- CC(C)CCNS(=O)(=O)c1ccc(-c2nc(C(C)C)cs2)s1 — lower, -11%
- CCc1cc(C(=O)N2CCN(Cc3cc(C)cc(C)c3)C(=O)C2)ccn1 — lower, -7%
- CCOC(=O)c1cnn(-c2nc(C)cc(C)n2)c1O — lower, -4%
- CCn1nccc1CN(C)C(=O)c1cc(S(=O)(=O)N(C)C)c(Cl)cc1Cl — higher, 30%
- CC(=O)Nc1nc(CN2CCC=C(c3ccccc3)C2)cs1 — lower, 5%

Point of comparison: `CN(C)c1cccc(NC(=O)CC(F)(F)F)n1`, Z score -2.76. Against it:
- CC(C)C(=O)N1CCC(c2nc(-c3cnsc3)no2)CC1 — higher, 0.07
- C[C@@H](C(=O)Nc1cc(F)ccc1O)N(C)C — higher, -0.08
- Cc1nc(C(=N)NOC(=O)Cc2ccccc2)no1 — higher, 1.79
- O=C(COc1ccc(Cl)cc1)Nc1cccc(Cl)c1N1CCCC1 — higher, -0.46
- CCOc1cccc(-c2ccc3nc(-c4cccc(OC)c4)c(CCC(=O)NCCN4CCCC4)n3c2)c1 — lower, -11.14
- CCOc1ncccc1CNc1cncc(-n2cccn2)n1 — higher, 2.64
- CCNC(=O)[C@@]1(OCc2ccc(F)cc2F)CC(OCc2cccc(Cl)c2)[C@@H]2OC(C)(C)O[C@@H]2C1 (some centres not stated) — higher, 1.49
- CC(=O)c1c(-c2cccc(C(=O)N3CCN(CCO)CC3)c2)cnn1C — higher, -0.6
- CC(NC(=O)N[C@H]1CCO[C@@H]1c1cnn(C(C)C)c1)C1CCC(F)CC1 (some centres not stated) — higher, 2.38
- CCn1cnnc1[C@H]1CCCN(c2c(C(=O)O)cnc3ccccc23)C1 — higher, 1.51
- CC(C)CN1CCC[C@H]1CNC(C)c1cnn(C)c1 (some centres not stated) — higher, 2.06
- Cc1cccnc1C(=O)N[C@@H]1CCC[C@@H]1C(=O)N1CCc2ccccc2C1 — higher, 0.98
- Cn1nccc1C1CC(Nc2nc(C3CCCCC3)ns2)CCO1 (configuration not stated) — higher, 1.76
- O=C(C[C@H]1CCCCN(Cc2ccccc2)C1=O)NC1CC1 — higher, 1.7
- CC(C)N1CCC2(CCC(O)CC2)CC1 — higher, -0.07
- COc1cccc(-c2nc3ccc(-c4cccc(C(F)(F)F)c4)cn3c2CCC(=O)Nc2ccc(C)cc2)c1 — higher, 1.08
- Cc1ccc(S(=O)(=O)NCc2ccc(N3CCCC3=O)cc2)c(C)c1 — higher, -0.18
- Cn1cc(-c2cc3n(n2)CCC(=O)N3CC(=O)Nc2ccc(Cl)cc2)c2ccccc21 — higher, 1.91
- O=C(c1ccc(F)c(F)c1)N1CCN(S(=O)(=O)c2cc3c4c(c2)CCC(=O)N4CCC3)CC1 — higher, -0.18
- FC(F)(F)c1nc2ccccc2nc1N1CCC2(CC1)OCCO2 — higher, 0.82
- CCN1CCC2CCC(C1)N2Cc1ncc(C2OCCO2)s1 (configuration not stated) — higher, -0.01
- COC(=O)c1cc2n(n1)C[C@@](C)(C(=O)NC1CCC(C)CC1)N(Cc1ccccc1OC)C2=O (some centres not stated) — higher, -1.87
- O=C(NCC1(CO)CC2(CCC2)C1)N[C@H]1CCOC2(CCC2)C1 — higher, 1.53
- Nc1ccccc1Nc1nc(C(C(F)(F)F)(C(F)(F)F)C(F)(F)F)nc(C(C(F)(F)F)(C(F)(F)F)C(F)(F)F)n1 — higher, 1.69
- COc1ccc(S(=O)(=O)N2CCC(n3cnnc3C)CC2)cc1Cl — higher, 1.63
- CC(=O)c1sc(NC(=O)Cc2c[nH]c3ccccc23)nc1-c1ccccc1 — higher, 0.26
- COCCN1CC2(CCC1=O)CCN(C(=O)c1c(C)nn(C)c1C)CC2 — higher, 0.78
- CC(C)(C)OC(=O)N1CC(CC(=O)Nc2ccc(F)c(Cl)c2)C1 — higher, -0.75
- C#Cc1cc(F)c(Br)c(F)c1N — higher, 0
- O=C(NCC1CC12CCCc1ccccc12)NC1CCCNC1=O (configuration not stated) — higher, -0.52
- O=C(NCCc1ccncc1)c1ccc(Br)o1 — higher, 1.51
- COC(=O)CNC(=O)[C@H]1CC[C@H](Cn2c(=O)[nH]c3ccccc3c2=O)CC1 — higher, 1.56
- CC(C)(C)CC(=O)N[C@@H]1CC[C@H]2CCOc3ccccc3C(=O)N3CCN(CC4CC4)C[C@H]3C(=O)NC[C@H]1O2 — higher, 0.81
- O=C(Nc1ccc(NC(=O)C(c2ccccc2)c2ccccc2)cc1)c1ccccc1Cl — higher, 0.42
- CC1OC(C)(C)OC1C1CNc2nc(NC(=O)C(C)(C)C)nc(O)c2N1C(=O)c1cccnc1 (configuration not stated) — higher, 3.08
- CC(C)c1nc2cc(C(=O)N3CCC[C@H](COc4ccccc4F)C3)ccc2o1 — higher, 1.58
- CCOc1ccc(-c2cc3nc(C4CCN(C(=O)OC(C)(C)C)CC4)c(C(=O)Nc4ccc5c(c4)OCCO5)cn3n2)cc1 — higher, 0.65
- Cc1cc(COCC(=O)N2CC(C)(C)O[C@@]3(C[C@@H]4CC[C@H]3C4)C2)no1 — higher, 2.12
- c1ccc2c(c1)CCN(c1nc(-c3c[nH]c4ccccc34)nc3c1CNC3)C2 — higher, 1.96
- COc1ccc(-c2cc(C(=O)N3CCC[C@H]3c3nc(C4CCOCC4)no3)c(C)n2C)cc1 — higher, 1.15
- Cc1sc2cc(C(=O)NCc3cccnc3)[nH]c2c1CN1CCCCC1 — higher, 0.68
- COc1cc(C(=O)NC[C@]2(O)CCCC2(C)C)nn1C — higher, 1.8
- CC[C@H](C)NC(=O)Cc1cn(CC)c2ncccc12 — higher, 2
- O=C(c1cc2n(n1)CCN(c1cnccn1)C2)N1CCCC1 — higher, 1.86
- CN1CCN(CC[C@H](O)c2ccc(N)cc2)CC1 — higher, 0.42
- CC(C)CCNS(=O)(=O)c1ccc(-c2nc(C(C)C)cs2)s1 — higher, 2.01
- CCc1cc(C(=O)N2CCN(Cc3cc(C)cc(C)c3)C(=O)C2)ccn1 — higher, 0.98
- CCOC(=O)c1cnn(-c2nc(C)cc(C)n2)c1O — higher, 0.45
- CCn1nccc1CN(C)C(=O)c1cc(S(=O)(=O)N(C)C)c(Cl)cc1Cl — lower, -4
- CC(=O)Nc1nc(CN2CCC=C(c3ccccc3)C2)cs1 — higher, -0.94
